Results published in PubChem BioAssay AID504832 (National Center for Advancing Translational Sciences (NCATS), 2011).
The campaign covered roughly 310,000 compounds. About 18,000 (5.8%) were called active. This list was built around the results that the source calls inconclusive (neither active nor inactive); the mix of calls is not that of the screen. The call rests on the fitted dose curve; in most records, active means well fitted inhibition curve with a large enough effect; inconclusive means small, poorly fitted or top-dose-only effect, or another doubt; inactive means no such curve, though single readings can be large or run the other way. No potency is given beside an inconclusive call; the fits are too rough.

Assay: Primary qHTS for delayed death inhibitors of the malarial parasite plastid, 48 hour incubation
Settings: P. falciparum luciferase growth in erythrocytes; series mostly up to 28.7 µM; activity change, negative = inhibition: at the top concentration
Procedure, shortened: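 Compounds are pin-transferred into medium, infected erythrocytes (2% hematocrit, 0.1% parasitemia final) are added, and plates sit one parasite generation at 37 C in 5% CO2. Detection reagent is then added and luminescence measured.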
On the % scale 0 is the no-effect control and ±100 the full control effect; potency means the concentration at half of the fitted maximal effect; tags describe the fitted curve by direction and shape.

SMILES | activity change, negative = inhibition | Potency
C=CCNC(=S)Nc1sc2c(c1C(=O)OCC)CC(C)(CC)OC2 (stereo unspecified) | inactive: 14.9% | 
CCOc1ccc(C2C(C(=O)c3ccc(C)o3)=C(O)C(=O)N2c2nc(C)c(C(=O)OC)s2)cc1 (stereo unspecified) | inactive: 48.9% | 
O=C(Cc1ccc(F)cc1)N1CCC(CC2CC(c3cccc(Br)c3)=NO2)(C(=O)NCC2CCCCC2)CC1 (stereo unspecified) |  | inconclusive [inhibitor, full curve, poor fit]
CCN(CC)CCNC(=O)Cn1cnc2sc(C)c(S(=O)(=O)N3CCOCC3)c2c1=O |  | inconclusive [inhibitor, single point]
O=C1C2C3C=CC(C3)C2C(=O)N1c1cccc(N2C(=O)C3C4C=CC(C4)C3C2=O)n1 (stereo unspecified) | inactive: 6.03% | 
Cc1cccc(NC(=O)N2CCC(n3nnc4cc(C)ccc43)CC2)c1 |  | inconclusive [inhibitor, full curve, poor fit]
CC(NC(=O)C(=O)N/N=C/c1ccccc1)c1ccccc1 (stereo unspecified) | inactive: 15.7% | 
CC(C)CC(COCc1cccc(C(F)(F)F)c1)N1CCN(C(=O)c2cccc(C(F)(F)F)c2)CCC1=O (stereo unspecified) |  | inconclusive [inhibitor, partial curve]
O=C(Nc1ccc(Cl)cc1F)C1CCCN(C2=NS(=O)(=O)c3ccccc32)C1 (stereo unspecified) | inactive: -25.1% | 
CC1CCC(NC(=O)c2cccc(S(=O)(=O)N3CCN(c4ccccc4)CC3)c2)CC1 (stereo unspecified) |  | inconclusive [inhibitor, single point]
CC(c1ccco1)N(C(=O)c1ccccc1F)c1ccccn1 (stereo unspecified) | inactive: 0% | 
COc1ccc(C(CCNCc2ccccc2F)c2ccc(F)cc2)cc1 (stereo unspecified) |  | active: 7.38 µM
Cn1nnc(NC(=O)/C=C/c2ccco2)n1 | inactive: 32.9% | 
CCSc1nnc(NC(=O)C(NC(=O)c2ccc(Cl)cc2)C(C)C)s1 (stereo unspecified) | inactive: 5.13% | 
O=C(CN1CCc2ccccc21)Nc1ccc2c(c1)OCO2 | inactive: -4.06% | 
Cc1ccnc2nc(C(=O)OCC(=O)c3c[nH]c4ccccc34)nn12 | inactive: 62.8% | 
CCOC(=O)c1sc(C)c2c1NC(C)(c1ccccc1)NC2=O (stereo unspecified) |  | inconclusive [inhibitor, single point]
N=c1c2c(-c3ccccc3)c(-c3ccccc3)n(Cc3ccccc3)c2ncn1CCCO |  | active: 2.33 µM
Cc1cc(C)n2nc(C(=O)NCc3cccc(C(F)(F)F)c3)nc2n1 | inactive: 7.86% | 
Cc1ccc(NC(=O)CSc2nnc(C3CC3)n2C)cc1S(=O)(=O)N1CCCCC1 |  | active: 13.1 µM
CC(=O)N1c2ccc(S(=O)(=O)N3CCC(C(=O)N4CCN(c5ccccc5F)CC4)CC3)cc2CC1C (stereo unspecified) |  | inconclusive [inhibitor, partial curve]
CC(=O)Nc1ccc(NC(=O)C2CCCN2C(=O)NCc2ccccc2)cc1 (stereo unspecified) |  | inconclusive [inhibitor, partial curve, poor fit]
O=C1NC(=O)C(=Cc2ccc(Oc3ccc([N+](=O)[O-])cc3)cc2)C(=O)N1 | inactive: 0.187% | 
O=C(NC(=O)N1CCSCC1)c1c(Cl)cccc1Cl |  | inconclusive [inhibitor, full curve]

SMILES | activity change, negative = inhibition | Potency
NC(=O)c1nsc(C(=O)N(Cc2cccnc2)C(C(=O)NC2CCCCC2)c2ccc(F)cc2)c1N (stereo unspecified) |  | inconclusive [inhibitor, single point]
CC12CC3CC(C)(C1)CC(C(=O)NC(=S)N1CCOCC1)(C3)C2 |  | inconclusive [inhibitor, partial curve, poor fit]
Cc1ccc(-n2nc3c(c2NC(=O)c2ccc4c(c2)OCO4)CS(=O)(=O)C3)c(C)c1 | inactive: -2.37% | 
CCn1cnc2c(NCCc3cccnc3)nc(C#N)nc21 | inactive: -21.3% | 
O=C(c1cccc(S(=O)(=O)Nc2ccccc2Cl)c1)N1CCN(c2ccccc2O)CC1 |  | inconclusive [inhibitor, single point]
CCOCCn1c(N2CCN(c3ccccc3)CC2)nc2c1c(=O)n(C)c(=O)n2C |  | inconclusive [inhibitor, single point]
Cc1cc(=O)[nH]c(SCC(=O)c2ccc(F)c(C)c2)n1 |  | inconclusive [inhibitor, full curve, poor fit]
CC1(OC(=O)CCc2ccccc2)C(=O)C=C2C=C(c3ccc(C#N)cc3)N(Cc3ccccc3)C=C2C1=O (stereo unspecified) |  | inconclusive [inhibitor, single point]
Cc1ccc(N2CC(C(=O)N3CCC(c4nc5ccccc5[nH]4)CC3)CC2=O)cc1C (stereo unspecified) |  | inconclusive [inhibitor, partial curve]
Cn1c(=O)[nH]c(=O)c2c1nc(CN1CCN(c3cccc(Cl)c3)CC1)n2Cc1ccccc1Cl |  | inconclusive [inhibitor, single point]
O=c1c(Cc2ccccc2)c(O)ccn1CCc1cnc[nH]1 |  | inconclusive [inhibitor, partial curve, poor fit]
NC(=O)CN1CCN(Cc2ccc3c(c2)OCO3)CC1 | inactive: 6.52% | 
COC(=O)CSC1=NS(=O)(=O)c2ccccc21 | inactive: -10.6% | 
CCN(CC)S(=O)(=O)c1cccc(NC(=O)CNc2cccc(S(=O)(=O)N3CCCC3)c2)c1 |  | inconclusive [inhibitor, single point]
COc1ccc(CCNC(=S)N2CCC(C(=O)c3ccc(F)cc3)CC2)cc1OC |  | inconclusive [inhibitor, single point]
Nc1nc(Sc2c([N+](=O)[O-])cc(C(F)(F)F)cc2[N+](=O)[O-])n[nH]1 |  | inconclusive [inhibitor, single point]
CC(=O)N1CCC(C(=O)Nc2ccc(S(=O)(=O)N3CCCC(C)C3)cc2)CC1 (stereo unspecified) |  | inconclusive [inhibitor, single point]
O=c1[nH]c(CN2CCN(S(=O)(=O)/C=C/c3ccccc3)CC2)nc2cc(Cl)ccc12 |  | inconclusive [inhibitor, full curve]
COc1ccccc1C(=O)COC(=O)c1cc([N+](=O)[O-])ccc1N1CCOCC1 |  | active: 4.65 µM
CCNC(=S)N/N=C(\C)c1cc2ccccc2o1 |  | inconclusive [inhibitor, single point]
O=C(CCC1COc2ccccc2O1)Nc1ncccc1O (stereo unspecified) | inactive: -9.02% | 
CCC(C)Nc1cc(C)nc2ncnn12 (stereo unspecified) | inactive: 27.6% | 
Cc1ccc(C)c2[nH]c(=O)c(CCNC(=O)c3cc4ccccc4o3)cc12 |  | inconclusive [inhibitor, partial curve]
COCC(C)NS(=O)(=O)c1ccc(NC(=O)c2ccccn2)cc1 (stereo unspecified) | inactive: 31.3% | 

SMILES | activity change, negative = inhibition | Potency
CCOC(=O)C(C)On1c(-c2cccc(Cl)c2)nc2ccc([N+](=O)[O-])cc21 (stereo unspecified) |  | inconclusive [inhibitor, single point]
COc1ccc(NC(=O)c2cc3c(s2)CCC(C)C3)cc1S(=O)(=O)N1CCOCC1 (stereo unspecified) |  | inconclusive [inhibitor, single point]
Cc1ccc(C)n1-c1ccc(C(=O)NN)cc1 |  | inconclusive [inhibitor, single point]
Cc1cc2nc3c(=O)n(C4CCCCC4)c(=O)[nH]c3nc2cc1N | inactive: -6.33% | 
COc1ccccc1C(CNC(=O)CCNC(=O)c1ccccc1Cl)N1CCCC1 (stereo unspecified) |  | inconclusive [inhibitor, single point]
CN1CC(C(=O)c2ccc(Cl)cc2)C(c2ccc(Cl)cc2Cl)C1 (stereo unspecified) |  | inconclusive [inhibitor, single point]
CCc1ccc2nc(NC(=O)c3ccc(N4C(=O)CCC4=O)cc3)sc2c1 | inactive: 37.1% | 
CCN(CC)CC#CCC(O)(c1ccccc1)c1ccc(Br)cc1 (stereo unspecified) |  | inconclusive [inhibitor, single point]
N#CCCN(C(=O)Nc1ccc(Cl)cc1)c1ccccc1 |  | inconclusive [inhibitor, single point]
Cc1ccc(CN2CC(=O)N3[C@H]4c5cc(C)ccc5OC[C@@H]4[C@H](c4ccccc4)[C@]3(C)C2=O)cc1 |  | active: 5.86 µM
Cc1sc2nc(SCC(=O)Nc3ccc(S(N)(=O)=O)cc3)[nH]c(=O)c2c1C |  | inconclusive [inhibitor, single point]
CC(O)[C@H]1CN=C(N)N1CCCCC1CCCCC1 (stereo partly specified) |  | active: 9.28 µM
COc1ccccc1NC(=O)CC(=O)CSc1nnc(-c2ccc(C)cc2)n1C |  | active: 11.7 µM
COc1ccc(-c2cc(-c3nnc(-c4ccncc4)o3)c3ccccc3n2)cc1 |  | inconclusive [inhibitor, single point]
COc1c(O)c(=O)n2c3ccccc3c3ccnc1c32 |  | active: 10.4 µM
C=CCn1c(SCc2ccc(C(=O)OC)cc2)nnc1-c1sc(N)nc1C |  | inconclusive [inhibitor, single point]
Cc1ccc2[nH]c(-c3ccccc3)c(CN(C)C)c(=O)c2c1 |  | inconclusive [inhibitor, single point]
Cc1ccc(-c2nn(-c3ccccc3)cc2C(=O)NN2CCN(C)CC2)cc1 |  | inconclusive [inhibitor, single point]
COc1ccc(CNC(=O)C2CCN(S(=O)(=O)c3ccccc3)CC2)cc1 | inactive: -10.7% | 
CC1CC(C)CN(CCCNC(=O)Cc2c(C(=O)O)[nH]c3ccccc23)C1 (stereo unspecified) | inactive: -5.68% | 
O=C(NCCN1CCOCC1)c1cc(-c2ccc(Cl)cc2)on1 | inactive: 10.8% | 
Cc1ccc(Nc2c(-c3ccccc3)nc3cnccn23)cc1 |  | inconclusive [inhibitor, single point]
CN(C)c1ccc(CNC(=O)C2CCC(CNc3c(N4CCCCC4)c(=O)c3=O)CC2)cc1 (stereo unspecified) |  | inconclusive [inhibitor, partial curve]
